Measurements as given in PubChem BioAssay AID686979 (National Center for Advancing Translational Sciences (NCATS), 2013).
Screen size: about 420,000 compounds; about 50,000 (12%) were called active. The inconclusive results got no clear call from the source; some entries with a clear call stand among them for comparison. Calls come from the whole dose curve; as a rule, active = well fitted inhibition curve with a large enough effect; inconclusive = small, poorly fitted or top-dose-only effect; inactive = flat fitted curve, though single readings scatter. Potencies of inconclusive entries are left out as doubtful fits.

Experiment: qHTS for Inhibitors of human tyrosyl-DNA phosphodiesterase 1 (TDP1): qHTS in cells in presence of CPT; note: nearly all actives have a fitted effect of over 55% in size
Conditions: chicken DT40 Tdp1-/-;hTDP1 cells + 20 nM CPT, ATP luminescence, 48 h; activity change, negative = growth inhibition: at 46.2 µM (top of the series) unless noted
How it was run: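 Chicken DT40 Tdp1-/- cells stably complemented with human TDP1 were seeded at 400 cells/well in medium containing 20 nM camptothecin, exposed to pin-transferred compounds, and grown at 37 °C for at least 48 hr. Viability was read as ATP luminescence.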
% is set by controls: 0 for no effect and ±100 for the full control effect; potency is the fitted concentration of half-maximal effect; tags give direction and shape of the fitted curve.

Structure (SMILES) | Potency | activity change, negative = growth inhibition
c1cc2c(cc1CN1CCOCC1)OCO2 | inactive | 
O=C1/C(=C/c2cccc([N+](=O)[O-])c2)Oc2cc(O)ccc21 | inconclusive [inhibitor, single point] | 
COc1ccc(F)c(CN2CCCC(CO)(Cc3cccc(Cl)c3)C2)c1 (configuration not stated) | inconclusive [inhibitor, partial curve] | 
COc1ccc(C(=O)N2CC(=O)Nc3ccc(C)cc3C2c2ccccc2)cc1OC (configuration not stated) | inconclusive [inhibitor, single point] | 
CCOc1ccc(C2C=C(c3cccc(OC)c3)Nc3nnnn32)cc1 (configuration not stated) | inconclusive [inhibitor, partial curve, poor fit] | 
Cc1cccc(C(C)(C)C)c1OCCOCCN1CCCC1 | inconclusive [inhibitor, single point] | 
Cc1cc(=O)[nH]c(SCc2nc3ccc([N+](=O)[O-])cc3[nH]2)n1 | inactive | 
Cc1csc(SC(C)C(=O)Nc2ccc(F)cc2Cl)n1 (configuration not stated) | inactive | 
CN(CC(=O)Nc1ccccc1C(F)(F)F)C(=O)c1cc(Cl)nc2ccccc12 | inactive | 
Cc1cnc(CNc2nc3cc(-c4ccccc4C)sc3c(=O)n2C)cn1 | inconclusive [inhibitor, single point] | 
COc1cc(OC)cc(C(=O)NCC(=O)OCC(=O)C(C)(C)C)c1 | inactive | 
CC(C)CC(NC(=O)C(CO)NC(=O)C1CCC(=O)N1)C(N)=O (configuration not stated) | inactive | 
O=C1CCc2ccc(OCCCCN3CCN(c4cccc(Cl)c4Cl)CC3)cc2N1 | active: 16.4 µM | 
O=C(COc1ccccc1)NCC(c1cccs1)S(=O)(=O)c1ccc(Cl)cc1 (configuration not stated) | inconclusive [inhibitor, single point] | 
O=C(CSc1ccc(-c2cccnc2)nn1)c1ccc([N+](=O)[O-])cc1 | inactive | 
O=C(Nc1ccccc1F)c1ccc(S(=O)(=O)N2CCCCCC2)cc1 | inactive | 
Cc1ccc(S(=O)(=O)N2CCN(S(C)(=O)=O)C2)cc1 | inactive | 
Cc1ccc(NC(NC(=O)Cc2ccccc2)C(Cl)(Cl)Cl)cc1 (configuration not stated) | inconclusive [inhibitor, single point] | 
Cc1cc(C)c2[nH]c(O)c(N=NC(=S)NCC3CCCO3)c2c1 (configuration not stated) | active: 6.51 µM | 
O=[N+]([O-])c1cccc2c(N3CCOCC3)ccnc12 | inconclusive [inhibitor, single point] | 
O=C(N/N=C/C=C/c1cccc([N+](=O)[O-])c1)c1ccncc1 | inconclusive [inhibitor, single point] | 
CC(C)(C)c1ccc(C(=O)NNc2ncnc3c2cnn3-c2ccccc2)cc1 | inconclusive [inhibitor, single point] | 
C/C(=N\NC(=O)c1cc(-c2ccc(C)s2)[nH]n1)c1ccco1 | inconclusive [inhibitor, single point] | 
Cc1ccc(S(=O)(=O)N2CCOCC2)cc1NC(=O)COC(=O)/C=C/c1ccc(F)cc1 | inconclusive [inhibitor, single point] | 

Structure (SMILES) | Potency | activity change, negative = growth inhibition
CCOC(=O)c1c(C)[nH]c(C)c1C(=O)CSc1nc2ccccc2n1CC | inconclusive [inhibitor, partial curve] | 
Cc1ccccc1NC(=O)Cc1nc(COC(=O)c2ccc(C(F)(F)F)cc2)cs1 | inactive | 
CC(C)(C)c1ccc(C(=O)N2CCN(C(=O)c3ccco3)CC2)cc1 | inconclusive [inhibitor, partial curve] | 
Cc1cnc(NC(=O)C(C)N2CCN(C)CC2)s1 (configuration not stated) | inactive | 
Nc1c(C(=O)NCc2ccc(F)cc2)c2nc3ccccc3nc2n1CCCN1CCOCC1 | inconclusive [inhibitor, single point] | 
Cc1ccc(CNC(=O)CSc2c3c(nc4ccc(Cl)cc24)CCCC3)cc1 | inconclusive [inhibitor, single point] | 
Cc1c(C2=CCN(S(=O)(=O)c3ccc(Br)cc3)CC2)c2ccccc2n1CC(=O)N1CCCC1 | inconclusive [inhibitor, single point] | 
Cc1occc1-c1nnc(SCC(=O)NC2CCCC2)n1C | inactive | 
CCC(CC)C(=O)N=C1SC2CS(=O)(=O)CC2N1CCc1ccc(OC)cc1 (configuration not stated) | inactive | 
Cc1ccc(-n2cc(CN3CCCN(C=O)CC3)c(-c3ccc(F)cc3)n2)cc1 | inconclusive [inhibitor, single point] | 
O=C(CCCCCn1c(=S)[nH]c2cc3c(cc2c1=O)OCO3)N1CCN(c2ccc(F)cc2)CC1 | inconclusive [inhibitor, single point] | 
CSc1nc(Sc2cccc(Cl)c2)c2ccccc2n1 | inconclusive [inhibitor, single point] | 
COc1ccc(NC(=O)CN(C)C(=O)c2cn(-c3ccccc3)nc2-c2cccnc2)cc1 | inactive | 
CCOc1cc(/C=N/Nc2nc(N3CCCC3)nc(N3CCCC3)n2)ccc1O |  | inconclusive: -32.2% [inhibitor]
Cc1ccc2nc(-c3ccc(C)c(NC(=O)Cc4ccccc4)c3)oc2c1 | inactive | 
CC(NC(=O)c1ccc(=O)oc1)c1ccccc1 (configuration not stated) | inconclusive [inhibitor, partial curve, poor fit] | 
COc1ccc2nc3oc(C(=O)Nc4cccc(C(F)(F)F)c4)cc3cc2c1 | active: 13 µM | 
CCCN(C(=O)COC(=O)CCOc1ccc(C)cc1)c1c(N)n(Cc2ccccc2)c(=O)[nH]c1=O | inconclusive [inhibitor, single point] | 
CCOc1ccc(NC(=O)CN(Cc2ccccc2)S(=O)(=O)c2ccc(Cl)cc2)cc1 | inactive | 
CSCCNCc1cn(-c2ccc(F)cc2F)nc1-c1ccccc1C | inconclusive [inhibitor, single point] | 
O=C(Nc1ccc(Br)cc1)N1CCC(CN2CCCC2)CC1 | inconclusive [inhibitor, single point] | 
COc1ccc(-c2ccc(CCC(=O)O)o2)cc1 | active: 20.6 µM | 
CC(C)OC(=O)N(C)c1ccc(C(O)(C(F)(F)F)C(F)(F)F)cc1 | inconclusive [inhibitor, partial curve] | 
OCCC1CN(C2CCC2)CCN1Cc1ccc(F)c(F)c1 (configuration not stated) | inactive | 

Structure (SMILES) | Potency | activity change, negative = growth inhibition
COC(=O)c1cc(OC)c(OC)cc1NC(=O)c1cccc(OC)c1OC | inconclusive [inhibitor, single point] | 
O=C(Nc1cc(Cl)ccc1O)C1CC(c2c(F)cccc2Cl)=NO1 (configuration not stated) | inconclusive [inhibitor, single point] | 
CCc1c(C)sc2c1CCN(C(=O)Nc1ccccc1C(=O)OC)C2c1ccc(F)cc1 (configuration not stated) | inconclusive [inhibitor, single point] | 
CCCC12CN3CC(C)(CN(C1)C3c1ccccc1Cl)C2=O (configuration not stated) | inactive | 
Cc1ccc(-c2[nH]nc(N)c2N=Nc2ccccc2C)cc1 | inconclusive [inhibitor, single point] | 
CCc1c(C(=O)O)[nH]c2ccc(Br)cc12 | inactive | 
Cc1nc(C(=O)NC2CCOCC2)sc1C1(C)CC(c2cccc([N+](=O)[O-])c2)=NO1 (configuration not stated) | inconclusive [inhibitor, single point] | 
O=C(Nc1ccc(N2CCCCC2)cc1)c1cc(S(=O)(=O)N2CCOCC2)ccc1F | inconclusive [inhibitor, single point] | 
Cc1ccc2[nH]c(=O)cc(C(=O)OC(C)C)c2c1 | inactive | 
Cc1sc2nc(SCC(=O)NCc3ccco3)n(Cc3ccccc3)c(=O)c2c1C | inconclusive [inhibitor, single point] | 
Cc1c(Cl)cccc1NC(=O)c1ccc(NC(=O)N2CCSc3ncccc32)cc1 | inconclusive [inhibitor, single point] | 
CCOc1ccc(S(=O)(=O)N2Cc3ccccc3CC2C(=O)NCCCn2ccnc2)cc1 (configuration not stated) | inactive | 
CC(=O)c1c(C)[nH]c(C(=O)OCC(=O)c2c(N)n(CC(C)C)c(=O)n(C)c2=O)c1C | inconclusive [inhibitor, single point] | 
Cc1cccc(C)c1OCc1cc(C(=O)N2CCC(c3ccccc3)CC2)no1 | inconclusive [inhibitor, single point] | 
COc1ccc(N2CCN(CCCNC(=O)c3ccc4nc(CCc5ccccc5)oc4c3)CC2)cc1 | active: 14.6 µM | 
CCOCCCNC(=S)Nc1cc(OCC)c(NC(=O)c2ccco2)cc1OCC | inactive | 
CC1CCN(Cc2cc(=O)oc3cc4c(cc23)CCCC4)CC1 | inconclusive [inhibitor, single point] | 
NC(=O)c1cc(S(=O)(=O)NCCCc2ccccc2)cs1 | inconclusive [inhibitor, partial curve] | 
COc1cc(Nc2cc(C)nc3nc(C)nn23)cc(OC)c1OC | inconclusive [inhibitor, single point] | 
C=CCNc1nc2ccccc2nc1NS(=O)(=O)c1ccc(OC)cc1 | inconclusive [inhibitor, single point] | 
COc1ccc(C(=O)Nc2cccc3ccccc23)cc1 | inconclusive [inhibitor, single point] | 
CC(C)Cn1c(N)c(C(=O)COC(=O)c2cnccn2)c(=O)n(C)c1=O | inconclusive [inhibitor, single point] | 
O=C(NC(=O)c1ccccc1)NC(=O)c1ccccc1 | inactive | 
Cn1c(CC(=O)NC(C)(C)CO)c(Sc2ccccc2)c2ccccc21 | active: 14.6 µM | 
